PubChem BioAssay AID588549 (Broad Institute, 2011)
Hit rate of the full screen: of about 360,000 compounds, about 780 (0.22%) were called active. Inconclusive results, whose numbers are uncertain, are shown with a selection of clear calls. Rule as the data show it: active = inhibition above about 8.5% (passing the limit was not always enough); inconclusive = no clear call, values can overlap the other calls.

tested on: Mycobacterium tuberculosis FadD28 fatty-acid-AMP ligase; assay: inhibitors of FadD28 bisubstrate probe binding, primary screen, biochemical, fluorescence polarization, single point (AID 588549); settings: at 12.5 µM, hits give high values

Q: How did the inhibition turn out when `Cc1ccc2oc(/N=C(\N)NC(=O)C3CC3)nc2c1` was run?
A: inactive: -3.74%

Q: How did the inhibition turn out when `Cc1ccn2c(CNCCn3cccn3)c(C(=O)N3CCCCCC3)nc2c1` was run?
A: inconclusive: 5.62%

Q: For `COc1ccc(C(=O)NCC(=O)OCC(=O)NCc2cccs2)cc1`, which inhibition is on record?
A: inconclusive: 17.9%

Q: `COc1ccc(CNC(=O)COC(=O)c2ccc(Br)c(S(=O)(=O)N3CCOCC3)c2)cc1` was tested. Which inhibition did it give?
A: inconclusive: 7%

Q: How did the inhibition turn out when `O=C(CSc1nnnn1-c1ccccc1)Nc1nsc(-c2ccc(Cl)cc2)n1` was run?
A: inconclusive: 7.68%

Q: Which inhibition does the source give for `c1coc(-c2nc(-c3ccco3)c(-c3ccco3)nc2-c2ccco2)c1` here?
A: inconclusive: 8.14%

Q: For `O=Cc1ccc(C(=O)OCC(=O)NC(=O)Nc2ccccc2F)cc1`, which inhibition is on record?
A: inconclusive: 6.14%

Q: Which inhibition does the source give for `COC(=O)CC/C(C)=N\Nc1ccc([N+](=O)[O-])cc1[N+](=O)[O-]` here?
A: inactive: -2.3%

Q: For `C[C@H](CO)N1C[C@H](C)[C@@H](CN(C)C(=O)Nc2ccccc2)Oc2c(NC(=O)c3ccncc3)cccc2C1=O`, which inhibition is on record?
A: inactive: -0.962%

Q: For `CCN(CC)c1ccc(/C=N/NC(=O)c2ccc3c(c2)OCCO3)cc1`, which inhibition is on record?
A: inconclusive: 7.98%

Q: How did the inhibition turn out when `Cc1[nH]n(S(=O)(=O)c2ccccc2)c(=O)c1N=Nc1cccc(Cl)c1` was run?
A: inactive: -1.23%

Q: With `Cc1ccc(S(=O)(=O)NC23CC4CC(CC(C4)C2)C3)cc1` as the molecule, how does the inhibition read?
A: inactive: -2.51%

Q: For `NS(=O)(=O)c1ccc(NC(=O)c2ccc3c(c2)OCO3)cc1`, which inhibition is on record?
A: inconclusive: 5.91%

Q: For `COC(=O)CSc1nc2ccccc2nc1SCC(=O)OC`, which inhibition is on record?
A: inconclusive: 3.28%

Q: How did the inhibition turn out when `Nc1nnnn1/N=C/c1cc(Cl)cc(Cl)c1O` was run?
A: inconclusive: 5.48%

Q: For `N#Cc1ccc(OCC(=O)OCC(=O)Nc2ccc(N3CCOCC3)cc2)cc1`, which inhibition is on record?
A: inconclusive: 7.81%

Q: With `CC(=O)Oc1ccc(-c2nc(-c3cccnc3)no2)cc1` as the molecule, how does the inhibition read?
A: inconclusive: 4.22%

Q: Which inhibition does the source give for `CSc1nnc(-c2cc3c(s2)-c2ccccc2CC3)o1` here?
A: inactive: -2.77%

Q: Which inhibition does the source give for `O=C(Nc1cnc2sccn2c1=O)c1ccccc1Cl` here?
A: inconclusive: 4.3%

Q: Which inhibition does the source give for `Cc1ccc(N/C(C(Cl)=C(Cl)Cl)=C(/Cl)[N+](=O)[O-])c(C)c1` here?
A: inconclusive: 7.93%

Q: `COCCNc1nc(-c2ccc(Cl)cc2C)c2sccc2n1` was tested. Which inhibition did it give?
A: inactive: -2.59%

Q: For `O=C1CSC(=S)N1/N=C/c1ccc(O)c([N+](=O)[O-])c1`, which inhibition is on record?
A: inconclusive: 7.84%

Q: `O=C(CSc1ncn[nH]1)Nc1ccc(S(=O)(=O)Nc2ncccn2)cc1` was tested. Which inhibition did it give?
A: inconclusive: 4.65%

Q: For `Cc1ccc(OCc2n[nH]c(=S)n2-c2ccc(Br)cc2)cc1`, which inhibition is on record?
A: inconclusive: 4.24%

Q: `CCOC(=O)c1ccc(NC(=O)Nc2ccc3c(c2)OCCO3)cc1` was tested. Which inhibition did it give?
A: inconclusive: 11.4%

Q: With `CCCC(CC)Sc1nc2c([nH]1)c(=S)n(C)c(=O)n2C` (stereo not drawn) as the molecule, how does the inhibition read?
A: inactive: 0.756%

Q: For `CN1c2ccsc2C(O)=C(C(=S)Nc2ccc(F)c(Cl)c2)S1(=O)=O`, which inhibition is on record?
A: inconclusive: 7.45%

Q: How did the inhibition turn out when `O=C1c2cc(Br)ccc2N(Cc2ccc(Br)cc2)S(=O)(=O)C1c1cc(Cl)c(Cl)cc1[N+](=O)[O-]` (stereo not drawn) was run?
A: active: 29.9%

Q: `Oc1ccc(Br)cc1/C=N/n1c(C2CCCCC2)n[nH]c1=S` was tested. Which inhibition did it give?
A: active: 15.8%

Q: `CC1(C)Cc2nc3oc4c(NCc5ccccc5)ncnc4c3cc2CO1` was tested. Which inhibition did it give?
A: inconclusive: 4.87%

Q: Which inhibition does the source give for `Cc1ccc(/C=C2/SC(=O)NC2=S)o1` here?
A: active: 15.7%

Q: For `O=c1cc(CSc2ccc(Cl)cc2)[nH]c2[nH]n(-c3ccccc3)c(=O)c12`, which inhibition is on record?
A: inconclusive: 11.1%

Q: How did the inhibition turn out when `CC1CCN(S(=O)(=O)c2ccc(C(=O)Nc3nnc(C4=COCCO4)o3)cc2)CC1` was run?
A: inconclusive: 10.6%

Q: With `COC(=O)c1sc(-c2ccc(C(C)(C)C)cc2)cc1NC(=O)c1ccccc1C(=O)O` as the molecule, how does the inhibition read?
A: inactive: -2.91%

Q: For `Cc1cc(SCNC(=O)c2ccccc2)nc(C(C)C)n1`, which inhibition is on record?
A: inconclusive: 5.27%

Q: How did the inhibition turn out when `O=C(NCCSc1ccccc1)c1ccc(Br)cc1` was run?
A: inactive: -1.78%

Q: For `NNc1ccc([N+](=O)[O-])c2[nH][nH]c(=O)c12`, which inhibition is on record?
A: active: 16%

Q: Which inhibition does the source give for `Cn1cc(S(=O)(=O)N2CCCC2)cc1C(=O)NCCc1ccccc1` here?
A: inconclusive: 5.7%

Q: With `Nc1ccccc1/C=N\N=C/c1ccccc1N` as the molecule, how does the inhibition read?
A: inconclusive: 4.14%

Q: `COc1ccc(NC(=O)c2ccccc2NS(C)(=O)=O)cc1OC` was tested. Which inhibition did it give?
A: inconclusive: 4.56%

Q: For `Cc1ccc(N2C(=O)/C(=C/c3ccc(CN(CCC#N)S(C)(=O)=O)o3)C(=O)NC2=S)cc1`, which inhibition is on record?
A: inconclusive: 8.57%

Q: With `CC12CCC(C(=O)NCCCn3ccnc3)(OC1=O)C2(C)C` (stereo not drawn) as the molecule, how does the inhibition read?
A: inconclusive: 2.85%

Q: Which inhibition does the source give for `COc1cc2[nH]c(Cl)c([N+](=O)[O-])c2cc1OC` here?
A: inconclusive: 5.67%

Q: For `O=C(/C=C/c1ccccc1)Nc1scc(-c2ccccc2)c1C(=O)O`, which inhibition is on record?
A: inactive: 1.6%

Q: Which inhibition does the source give for `COc1ccc(CCNc2oc(-c3ccccc3OC)nc2C#N)cc1OC` here?
A: inactive: 0.199%

Q: With `CC1=C(O)C(=O)C(c2c(C)cc(C)c(Br)c2C)=C(O)C1=O` as the molecule, how does the inhibition read?
A: inconclusive: 7.06%

Q: For `O=C1/C(=C/C=C/c2ccco2)SC(=S)N1NS(=O)(=O)c1ccccc1`, which inhibition is on record?
A: active: 47.5%

Q: Which inhibition does the source give for `COc1ccccc1NC(=O)Nc1cccc(C)n1` here?
A: inconclusive: 5.17%

Q: Which inhibition does the source give for `COc1cc2[nH]c(-c3ccc(C)cc3)cc(=O)c2cc1OC` here?
A: inactive: -5.63%

Q: For `CN(C)S(=O)(=O)c1cccc(NC(=S)NNC(=O)c2cc3ccccc3cc2O)c1`, which inhibition is on record?
A: inconclusive: 6.43%

Q: Which inhibition does the source give for `O=C(NN1C(=O)/C(=C/C=C/c2ccco2)SC1=S)c1ccccc1O` here?
A: active: 58.3%

Q: With `Cc1cccc2sc(NNC(=O)c3ccc(S(=O)(=O)N4CCCC(C)C4)cc3)nc12` (stereo not drawn) as the molecule, how does the inhibition read?
A: inconclusive: 6.38%

Q: How did the inhibition turn out when `N#Cc1cc2c(nc1SCc1ccc(Cl)nc1)CCCCC2` was run?
A: inconclusive: 8.69%

Q: With `COC(=O)c1ccccc1SCc1csc(C)n1` as the molecule, how does the inhibition read?
A: inactive: -1.16%

Q: For `O=c1ccc2[n+]([O-])c3ccc(O)cc3oc-2c1`, which inhibition is on record?
A: active: 98.1%

Q: `Cc1c(CC(=O)O)c(=O)oc2cc(OCc3ccc(Br)cc3)ccc12` was tested. Which inhibition did it give?
A: inactive: 0.563%

Q: How did the inhibition turn out when `C/C(=N\Nc1ccc(C(=O)O)cc1)c1ccc2c(c1)Nc1ccccc1S2` was run?
A: active: 19.8%

Q: For `COc1ccc(C(=O)c2c3ccccc3[n+]([O-])n2CCC(N)=O)cc1`, which inhibition is on record?
A: inactive: -2.02%

Q: Which inhibition does the source give for `O=c1[nH]c(=S)[nH]c(O)c1/C=C1\C=Nc2ccccc21` here?
A: inconclusive: 8.76%

Q: For `O=C1/C(=C/c2ccco2)SC(=S)N1CCC(=O)N1CCCCC1CCO` (stereo not drawn), which inhibition is on record?
A: inconclusive: 5.09%

Q: How did the inhibition turn out when `COc1ccc2cc(C(=O)N/N=C/c3cc(OC)c(OC)c(OC)c3)[nH]c2c1` was run?
A: inconclusive: 7.98%

Q: With `COc1cc(/C=C2\SC(=S)N(NC(=O)c3ccc(O)cc3)C2=O)ccc1O` as the molecule, how does the inhibition read?
A: inconclusive: 9.38%

Q: Which inhibition does the source give for `CC(C)C[C@H]1CNC(=S)N1CC1CCCN1C[C@H](Cc1ccc(O)cc1)N1C[C@H](Cc2ccccc2)N(CC2CCCCC2)C1=S` (stereo partly drawn) here?
A: inactive: -1.05%

Q: How did the inhibition turn out when `C[C@H](CO)N1C[C@H](C)[C@H](CN(C)S(=O)(=O)c2cccs2)Oc2ccc(NC(=O)Nc3ccc4c(c3)OCO4)cc2CC1=O` was run?
A: inconclusive: 8.65%

Q: Which inhibition does the source give for `COc1cc(C2C(C#N)=C(N)Oc3n[nH]c(-c4cccnc4)c32)ccc1OCC(N)=O` (stereo not drawn) here?
A: inactive: -2.02%

Q: For `Cc1ccc2c(c1)N(C(=O)NC1CCCCC1)C(C)(C)CC2C` (stereo not drawn), which inhibition is on record?
A: inconclusive: 8.22%

Q: Which inhibition does the source give for `COc1cc(O)c(C(CCN2CCN(c3ccccc3)CC2)c2ccc3c(c2)OCO3)c(OC)c1` (stereo not drawn) here?
A: inactive: -2.86%

Q: Which inhibition does the source give for `Cn1c(=O)c2cc(NC(=O)Nc3cccnc3)ccc2n1Cc1cccc(C(F)(F)F)c1` here?
A: inconclusive: 8.04%

Q: Which inhibition does the source give for `CC(=O)c1ccc(Oc2cc(-c3ccccc3)nc(-c3ccccc3)n2)cc1` here?
A: inconclusive: 6.43%

Q: With `COc1ccc(-c2noc(CNC(=O)c3ccc4c(c3)OCO4)n2)cc1` as the molecule, how does the inhibition read?
A: inconclusive: 6.91%

Q: `O=C(O)Cc1csc(-c2ccccc2)n1` was tested. Which inhibition did it give?
A: inconclusive: 6.51%

Q: `Cc1cc(-c2nnc(SCC(=O)Nc3ccccn3)o2)no1` was tested. Which inhibition did it give?
A: inactive: -2.08%

Q: With `CC1=C(C(=O)OC(C)C)C2(O)C(=O)c3ccccc3C2(O)N1` (stereo not drawn) as the molecule, how does the inhibition read?
A: inactive: -1.84%

Q: With `COc1cccc(CN(C)C(=S)Nc2ccc(C)c(C)c2)c1` as the molecule, how does the inhibition read?
A: inconclusive: 6.64%

Q: Which inhibition does the source give for `Cc1cc(C)c2c(c1)NC(C(=O)O)C1CC=CC21` (stereo not drawn) here?
A: inconclusive: 11.7%

Q: For `COc1ccc(C(=O)NCc2ccc(C)cc2)cc1S(=O)(=O)N1CCOCC1`, which inhibition is on record?
A: inconclusive: 7.72%

Q: `CCC(=O)OC1(C)C(=O)C=C2C=C(c3ccsc3)OC=C2C1=O` (stereo not drawn) was tested. Which inhibition did it give?
A: inconclusive: 7.61%

Q: For `Cc1ccc(NC(=S)/C(C#N)=C2/Nc3ccccc3S2)cc1`, which inhibition is on record?
A: inconclusive: 7.05%

Q: For `Cc1ccc(NS(=O)(=O)c2ccc(N/N=C/c3ccccc3OCC(=O)O)c([N+](=O)[O-])c2)c(C)c1`, which inhibition is on record?
A: inconclusive: 9.45%

Q: With `Cc1cccc(NC(=O)CN2C(=O)S/C(=C\c3cccn3-c3cccc(C(=O)O)c3)C2=O)c1` as the molecule, how does the inhibition read?
A: active: 61.6%

Q: How did the inhibition turn out when `CC(C)=NOc1cc(NC(=O)CCl)cc([N+](=O)[O-])c1` was run?
A: inconclusive: 3.54%

Q: With `CCN(CC)c1ccc(/C=N/NC(=O)c2ccc3nc[nH]c3c2)cc1` as the molecule, how does the inhibition read?
A: active: 31.4%

Q: With `COc1ccc(C2=NOC(C)(c3nnc(-c4ccccc4)o3)C2)cc1` (stereo not drawn) as the molecule, how does the inhibition read?
A: inconclusive: 8.03%

Q: Which inhibition does the source give for `O=C1NC(=Nc2ccccc2Cl)S/C1=C\c1cc([N+](=O)[O-])ccc1O` here?
A: active: 30.1%

Q: For `Cc1cccc(NC(=O)c2cccc(S(=O)(=O)N3CCc4ccccc4C3)c2)n1`, which inhibition is on record?
A: inconclusive: 3.47%

Q: How did the inhibition turn out when `Cc1ccc(NC(=O)CSc2ncc(-c3ccccc3)n2C(=O)c2ccccc2)cc1` was run?
A: inactive: -5.46%

Q: How did the inhibition turn out when `CCn1c2ccccc2c2cc(NC(=O)c3ccccc3-c3ccccc3C(=O)O)ccc21` was run?
A: inconclusive: 7.34%

Q: With `Cc1ccc(S(=O)(=O)Oc2cccc(/C=N/Nc3ccc(C(=O)O)cc3)c2)cc1` as the molecule, how does the inhibition read?
A: active: 30.1%
